The structures appear in SMILES notation. Hit rate of the full screen: of about 340,000 compounds, about 6,900 (2%) were called active. Rule as the data show it: active = inhibition above about 30%; inactive = below that, where a call was filed. This is a selection; strong and weak results do not stand in their true shares. Where no call is shown, the source filed none.

One may read the inhibition as the relative decrease from the control value, in per cent.

UniProt P14416, sequence (P14416 whole entry, looked up): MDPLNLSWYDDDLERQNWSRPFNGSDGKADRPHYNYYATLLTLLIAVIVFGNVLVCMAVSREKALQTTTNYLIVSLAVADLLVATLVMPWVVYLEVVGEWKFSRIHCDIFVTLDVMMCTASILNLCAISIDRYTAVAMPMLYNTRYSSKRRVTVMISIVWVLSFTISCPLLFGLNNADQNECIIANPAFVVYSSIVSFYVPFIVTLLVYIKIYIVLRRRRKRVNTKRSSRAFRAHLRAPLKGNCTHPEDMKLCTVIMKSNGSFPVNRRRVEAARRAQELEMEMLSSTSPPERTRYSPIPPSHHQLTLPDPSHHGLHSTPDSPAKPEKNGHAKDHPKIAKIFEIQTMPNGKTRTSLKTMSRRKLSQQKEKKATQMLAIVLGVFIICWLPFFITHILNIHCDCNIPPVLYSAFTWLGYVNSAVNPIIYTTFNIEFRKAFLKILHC

The target in this assay is D(2) dopamine receptor (Homo sapiens) (UniProt P14416). Nature of the assay: HTS Assay for Allosteric Antagonists of the Human D2 Dopamine Receptor: Primary Screen for Antagonists. Also: 0% is about no effect. The settings on record: HEK293 TREx D2 cells, calcium flux, dopamine EC80; at 10 µM; stronger effect = higher value. Summed up:
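Measurement of antagonist activity uses fluorescent calcium dye in inducible HEK293 T-REx D2 cells: 10 s baseline, compound addition with 180 s read, EC80 dopamine addition with a further 180 s read.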
(Calcium flux is commonly read through the fluorescence of an indicator in the cells.)
In the case of `Cc1nn(-c2ccccc2)c2c1N(CCCC(=O)NCc1ccccc1)C(=O)CS2`, the inhibition is -0.422%.
In the case of `O=C(NCCCN1CCN(c2ccccc2)CC1)Nc1ccccc1C(F)(F)F`, the inhibition is active: 74.6%.
Under `O=C1CN(C(=O)Nc2ccccc2Cl)C(c2ccccc2)c2c(sc3c2CCCC3)N1` (configuration not stated) stands 14.9%; under `COc1ccc(-c2cc(C(=O)NCCc3ccc(OC)c(OC)c3)c3ccccc3n2)cc1`, 10%.
Under `COc1ccc(NC(=O)C(C)Sc2cc(-c3ccccc3)nc(C)n2)cc1Cl` (configuration not stated) stands -14.8%.
For the compound `CCc1cc2c(cc3c(=O)n(CC(=O)NC4CCCCC4)ncn32)s1`, the inhibition was -4.55%.
The result for `Cc1ccc(OCC(=O)Nc2ccc3[nH]c(=O)sc3c2)cc1` reads -23.5%; that for `CCOc1ccc(N(C(C)C(=O)NCCSc2ccc(C)cc2)S(C)(=O)=O)cc1` (configuration not stated), 2.31%.
Consider `COc1cccc(C(c2sc3nc(-c4ccco4)nn3c2O)N2CCN(c3ccccc3F)CC2)c1` (configuration not stated), for which the inhibition amounted to 11.9%.
Under `Cc1cc(C)cc(NC(=O)C(=O)NCC(c2cccnc2)N2CCN(c3ccccc3)CC2)c1` (configuration not stated) stands 18.2%.
With `CCCCn1cc(S(=O)(=O)c2ccc(CC)cc2)c(=O)c2cc(F)c(N3CCOCC3)cc21`, the inhibition is -4.94%.
Under `c1csc(C(c2nnnn2C2CCCC2)N2CCCC3(CCCCC3)C2)c1` (configuration not stated) stands active: 30.8%.
As to `COc1ccc(-c2ccc(CCC(=O)O)n2CC(=O)Nc2cccc(Cl)c2C)cc1`, the inhibition is -19.8%.
Under `Cc1c(C(=O)N(Cc2ccc(N(C)C)cc2)Cc2ccco2)oc2cc(Br)ccc12` stands -6.62%.
On to `Cn1cc(C(=O)NCCc2ccccc2)c(=O)c2cc(S(=O)(=O)N3CCCCCC3)ccc21`, for which the inhibition was -3.18%.
Under `O=C(CN1C(=O)CC(c2ccco2)Sc2ccccc21)Nc1ccc(Br)cc1` (configuration not stated) stands 7.5%; under `COc1ccccc1-c1noc(-c2ccc(NCc3cccnc3)c([N+](=O)[O-])c2)n1`, 12.5%; under `CCCSc1nnc2c(n1)OC(c1ccc(OCC(=O)O)cc1)Nc1ccccc1-2` (configuration not stated), 8.22%.
For `CCCNC(=O)C1CCN(Cc2cc3ccccc3n2Cc2ccccc2)CC1`, the inhibition was determined as 20.1%.
On to `CC1(C)CC(=O)c2cc(-c3nc(-c4ccc(Cl)cc4)cs3)c(=O)n(-c3cccc(F)c3)c2C1`, for which the inhibition was -16.1%.
Under `CN(C)C=NC(=O)c1cc(C(=O)c2ccccc2)c[nH]1` stands active: 33.2%; under `COc1cc(C)ccc1OCCSc1nc2ccc(NC(=O)c3ccc(C)cc3)cc2s1`, -5.33%.
Consider `Cc1oc2ncnc(N3CCOCC3)c2c1C(=O)NCc1ccc(Cl)cc1`, for which the inhibition is -1.64%.
The result for `N#C/C(=C\c1ccc(-c2cccc(Cl)c2)o1)C(=O)Nc1cccc(C(F)(F)F)c1` reads 6.68%.
Regarding `Fc1ccc(N2CCN(c3ncnc4[nH]ncc34)CC2)cc1`, the inhibition is -4.54%.
The result for `CC(C)OCCCNC(=O)CN1C(=O)c2ccccc2Sc2ncccc21` reads 6.08%; that for `Cc1ccccc1N=Cc1cc2c(cc1O)OC(N)=C(C#N)C2c1ccccc1` (configuration not stated), active: 33.1%; that for `O=C(Nc1cccc2c1CCCC2)N1CCOc2ccc(Cl)cc21`, 13.3%.
Under `CCCC(=O)Nc1ccc2nc(SCC(=O)N3CCOCC3)sc2c1` stands 15.8%; under `CCN1CCN(C(c2ccc(F)cc2)c2sc3nc(-c4ccco4)nn3c2O)CC1` (configuration not stated), 14.9%; under `Cc1ccc(S(=O)(=O)N(CC(=O)NCCSc2ccc(Cl)cc2)c2cccc(Cl)c2)cc1`, 0.95%.
Under `Cc1ccc(S(=O)(=O)CCC(=O)N2CCN(c3nc4c(C)c(C)ccc4s3)CC2)cc1` stands -6.05%; under `COc1ccc(N2CCN(C(c3ccc(F)cc3)c3sc4nc(-c5ccco5)nn4c3O)CC2)cc1` (configuration not stated), -6.56%.
Turning to `Cc1ccc(OCC(=O)Nc2nonc2-c2ccc(Br)cc2)cc1`, the inhibition was 14%.
The result for `CCC(C)NC(=O)c1cnn(-c2cccc(F)c2)c1-n1cccc1` (configuration not stated) reads 2.51%.
Turning to `CC(=O)N1CCCC1c1nc2ccccc2n1Cc1ccccc1F` (configuration not stated), the inhibition is -3.41%.
As to `Cc1cccc(C(C)C)c1NC(=O)c1ccc2c(c1)CCCN2S(C)(=O)=O`, the inhibition is -1.06%.
The result for `CCCn1cc(S(=O)(=O)c2cccc(Cl)c2)c(=O)c2cc(F)c(N3CCCC3)cc21` reads 5.05%; that for `O=[N+]([O-])c1cccc(OCCN2CCC(Cc3ccccc3)CC2)c1`, active: 67.4%.
Under `Cc1cc(Cl)ccc1OCC(=O)N(Cc1ccc(N(C)C)cc1)C1CCS(=O)(=O)C1` (configuration not stated) stands -11.6%; under `CCOC(=O)c1cc(-c2ccc(C)cc2)n(CC(=O)Nc2ccc(OC)cc2OC)c1C`, 12.1%.
Under `Cc1ccc(NC(=O)CSc2nccn2C2CCCC2)cc1Cl` stands -12.7%.
Turning to `COc1cc(C(=O)Nc2ccc(Cl)c([N+](=O)[O-])c2)cc(OC)c1OC`, the inhibition is active: 36.7%.
As to `CCc1nnc2c(Nc3ccccc3Br)nc3ccccc3n12`, the inhibition is -8.72%.
Under `Cc1nn(CCC(=O)Nc2ccccc2Br)c(=O)c2nn(-c3ccccc3)c(C)c12` stands -14.7%.
Turning to `Cc1cccc(CCNC(=O)CCS(=O)(=O)c2cc3c(cc2C)NC(=O)CO3)c1`, the inhibition was determined as 12.4%.
Under `CCOC(=O)N1CCC2(CC1)OC(=O)C(C)=C2C(=O)NCc1ccccc1OC` stands -7.72%.
Under `Cn1cnc(S(=O)(=O)N2CCC(C(=O)Nc3ccc(Cl)c(C(F)(F)F)c3)CC2)c1` stands -8.67%.
The result for `CCc1cccc(NS(=O)(=O)c2ccc3c(c2)N(CC(=O)OC)C(=O)CS3)c1` reads -8.22%; that for `COc1ccccc1N1CCN(C(=O)CNS(=O)(=O)c2ccc(Br)s2)CC1`, 7.41%; that for `COC(=O)c1cc(C)nc2c1c(=O)nc(SCc1ccccc1Cl)n2C1CC1`, 7.27%.
Take `Cc1ccc(OCC(=O)Nc2ccc3nn(-c4ccc(C)cc4)nc3c2)cc1`: the inhibition is -0.0186%.
The result for `O=C1NCCN1c1ncc([N+](=O)[O-])s1` reads active: 54%.
Under `CN1CCc2c(sc3c2C(=O)NC(c2ccc4c(c2)OCO4)N3)C1` (configuration not stated) stands active: 32.2%; under `COc1ccc(C(=O)NNC(=O)COc2ccc(Cl)cc2C)cc1S(=O)(=O)N1CCOCC1`, active: 32.6%.
The result for `CC(C)N(Cc1nc(-c2ccc(Cl)cc2)no1)C(=O)c1ccco1` reads 10.5%; that for `CCN1CCCC1CNC(=O)c1cc(NC(C)=O)c(N(C)C)cc1OC` (configuration not stated), active: 69.3%.
`COc1ccc(-n2ccn(CC(=O)Nc3ccc(C)cc3C)c(=O)c2=O)cc1`: the inhibition was found to be 8.84%.
Under `COc1ccc(CNC(=O)c2sc3nc4n(c(=O)c3c2C)CCC4)cc1` stands -23.8%; under `CSCCC(NS(=O)(=O)c1ccccc1F)C(=O)N1CCCCCC1` (configuration not stated), active: 43.6%.
Turning to `CCCc1nnc(NC(=O)C(CC)Sc2nnc3c4ccccc4n(C)c3n2)s1` (configuration not stated), the inhibition was 0.516%.
On to `COc1ccc2c(c1)c1c(c(=O)n(-c3cccc(C)c3)c(=O)n1CC(=O)NCc1ccc(C)cc1)n2C`, for which the inhibition came to 9.89%.

The values above are taken from PubChem BioAssay AID485344 (National Center for Advancing Translational Sciences (NCATS), 2010).
